# Data reported in PMC4336329 (PLoS ONE, 2015).
# The campaign covered roughly 310,000 compounds. About 2,200 (0.71%) showed an effect of 50% or more. The effect is printed as a negative number. Some of the results follow.
# Biological target: human ether-à-go-go-related gene (hERG) potassium channel (human, UniProt Q12809)
# Assay: primary screen, population patch clamp on CHO cells stably expressing hERG
# human ether-à-go-go-related gene (hERG) potassium channel, sequence (Q12809 whole entry, looked up): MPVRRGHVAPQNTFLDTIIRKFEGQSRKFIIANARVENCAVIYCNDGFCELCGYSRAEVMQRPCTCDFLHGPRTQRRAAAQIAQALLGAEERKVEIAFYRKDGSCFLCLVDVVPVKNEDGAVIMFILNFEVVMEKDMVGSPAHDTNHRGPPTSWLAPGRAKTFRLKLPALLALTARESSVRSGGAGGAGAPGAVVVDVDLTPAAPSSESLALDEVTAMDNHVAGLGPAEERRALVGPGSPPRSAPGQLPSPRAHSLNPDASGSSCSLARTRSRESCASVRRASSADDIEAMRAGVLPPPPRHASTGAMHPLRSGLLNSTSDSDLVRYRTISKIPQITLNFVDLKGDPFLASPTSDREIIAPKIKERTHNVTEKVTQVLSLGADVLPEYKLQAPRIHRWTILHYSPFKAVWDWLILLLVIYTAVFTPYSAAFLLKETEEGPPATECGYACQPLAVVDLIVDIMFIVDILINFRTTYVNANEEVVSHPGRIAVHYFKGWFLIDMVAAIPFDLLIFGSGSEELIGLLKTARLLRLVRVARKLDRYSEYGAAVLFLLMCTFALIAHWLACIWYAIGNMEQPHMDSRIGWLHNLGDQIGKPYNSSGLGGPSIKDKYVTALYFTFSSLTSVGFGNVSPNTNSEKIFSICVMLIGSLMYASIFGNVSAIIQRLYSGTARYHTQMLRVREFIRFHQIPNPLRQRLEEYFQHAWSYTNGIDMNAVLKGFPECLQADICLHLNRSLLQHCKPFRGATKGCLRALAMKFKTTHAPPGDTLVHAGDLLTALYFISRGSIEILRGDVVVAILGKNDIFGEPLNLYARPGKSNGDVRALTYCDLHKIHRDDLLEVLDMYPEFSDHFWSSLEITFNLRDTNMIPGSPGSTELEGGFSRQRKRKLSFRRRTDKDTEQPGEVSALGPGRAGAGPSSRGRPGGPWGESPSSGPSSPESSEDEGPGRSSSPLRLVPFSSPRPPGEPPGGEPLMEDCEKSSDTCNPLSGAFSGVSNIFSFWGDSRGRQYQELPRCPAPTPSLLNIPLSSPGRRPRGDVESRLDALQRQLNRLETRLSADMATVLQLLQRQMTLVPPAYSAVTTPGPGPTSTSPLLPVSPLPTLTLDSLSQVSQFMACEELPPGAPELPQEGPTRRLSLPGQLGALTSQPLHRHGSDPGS
row,Compound,"hERG current change (%, negative = inhibition) at 1uM [%]"
1,CCc1ccc(NC(=O)C(=O)NCC(O)c2ccccc2)cc1 (stereo not shown),10.9
2,COc1ccc2oc(C(=O)OCC(=O)N(C)Cc3ccccc3)c(C)c2c1,10.7
3,COc1cccc(CNC(=O)Cc2ccc(OC)c(S(=O)(=O)N3CCOCC3)c2)c1,17.9
4,CCOC(=O)C1(CCOc2ccccc2)CCN(Cc2ccc(O)c(Cl)c2)CC1,-2.25
5,COc1ccc(CNC(=O)c2ccc3oc(C(C)C)nc3c2)cc1,4.38
6,COC(=O)c1cc(S(=O)(=O)N2CCC(C)CC2)cn1C,18.2
7,C/C(=N\NC(=O)c1cccc([N+](=O)[O-])c1)c1ccco1,5.62
8,FC(F)(F)c1cnc(Nc2ccc(N3CCOCC3)cc2)c(Cl)c1,11.1
9,CC1CC(C)CN(S(=O)(=O)N2CCCC(C(=O)NC3CCCCC3)C2)C1 (stereo not shown),14.7
10,Nn1c(SCC(=O)Nc2ccc(S(=O)(=O)N3CCCC3)cc2)nnc1C(F)(F)F,14
11,CCN1CCN(C(=O)N(c2ccccc2)c2ccccc2)CC1,7.3
12,CCC(=O)NC(=S)Nc1cccc(NC(=O)CC)c1,11.7
13,COc1ccc(CNC(=O)C(Cc2ccccc2)n2cccc2)cc1 (stereo not shown),10.4
14,COC(=O)c1sccc1NC(=O)COc1cccc(C)c1,9.28
15,CCC12CN3CC(CC)(CN(C1)C3c1ccc(OC(C)C)cc1)C2=O (stereo not shown),7.91
16,O=C(Nc1cccc(-c2ccccc2)c1)N1CCN(C(=O)Nc2cccc(-c3ccccc3)c2)CC1,11.8
17,CCc1ccc(-c2nnn(CCC#N)n2)cc1,11.3
18,CC(C)[C@H](NC(=O)[C@@H]1Cc2ccccc2CN1C(=O)OC(C)(C)C)C(=O)NCC1CCCO1 (stereo partly shown),0.821
19,CC(=O)NC(=S)Nc1ccc(NC(=S)NC(=O)c2cccs2)cc1,15.5
20,O=C(Nc1ccccc1)N1CCCC2CCCCC21 (stereo not shown),-1.96
21,COc1cc(/C=N/Nc2ccc(C)cc2)cc(Br)c1O.Cl,14.1
22,O=C(OCC(=O)N1CCCc2ccccc21)c1ccccc1[N+](=O)[O-],-2.07
23,CC(=O)Nc1cc[n+](CC(=O)c2cccc([N+](=O)[O-])c2)cc1.[Cl-],4.12

row,Compound,"hERG current change (%, negative = inhibition) at 1uM [%]"
1,CCOC(=O)COc1ccccc1C(=O)c1cnn(-c2ccccc2)c1,14
2,CCCCCN(C(=O)COC(=O)Cc1c(C)nc2ccccc2c1C)c1c(N)n(CCCC)c(=O)[nH]c1=O,14.5
3,Cc1cc(N/C=C2\CCCCC2=O)no1,11.3
4,CSc1scc2c1-c1nc(SCC(=O)C(C)(C)C)ncc1CC2,12.9
5,O=C(COC(=O)Cc1ccsc1)Nc1ccc(Cl)cn1,16
6,O=C(C1COc2ccccc2O1)N1CCN(c2nc3c(F)cc(F)cc3s2)CC1 (stereo not shown),4.54
7,CC(=O)/C(=N\Nc1ccccc1Cl)Sc1cccc2cccnc12,-2.76
8,Cc1cccc(N2CCN(CC(=O)Nc3ccc(S(=O)(=O)N4CCOCC4)cc3)CC2)c1C,-5.45
9,Cc1ccc(C)n1-c1ccc(C(=O)NC2CCN(Cc3ccccc3)CC2)cc1,-32.5
10,Cc1cc(NCC(C)C)n2ncnc2n1,14.4
11,Cc1ccc(-c2nn(CCC(=O)NCC3CCCO3)c(=O)c3ccccc23)cc1 (stereo not shown),8.25
12,NC(=O)CSc1nnc(-c2ccoc2)o1,9.9
13,CC1CCCC(C)N1C(=O)c1ccc(S(=O)(=O)NCc2ccco2)cc1 (stereo not shown),12
14,CCCNC(=S)N1CCN(C)CC1.O=C(O)C(=O)O,16.4
15,O=C(NNC(=O)C1CCN(Cc2cccc(F)c2)CC1)c1cccc(Cl)c1,10.6
16,O=C(C1=C[C@@H](c2ccc3c(c2)OCO3)C[C@@H](OCCCCO)O1)N1CCN(Cc2ccc3c(c2)OCO3)CC1,-6.18
17,O=C1CC(c2ccccc2)CC(O)=C1C=Nc1ccc(O)cc1 (stereo not shown),3.14
18,O=C(CCC(=O)N1CCOc2ccccc21)NCCCc1ccccc1,-0.507
19,CC1CC(C)CN(c2ccc(C(=O)NCc3ccc4c(c3)OCO4)cc2[N+](=O)[O-])C1 (stereo not shown),9.68
20,Cc1ccc(-c2nc3n(n2)Cc2ccccc2-3)cc1,-3.84
21,Cc1onc(-c2ccccc2Cl)c1C(=O)NCCCc1ccccc1,8.84
22,Nc1c(Cl)cnc(C(Cl)(Cl)Cl)c1Cl,9.65
23,Cc1ccc(S(=O)(=O)N(C)C(C)CCc2ccco2)cc1 (stereo not shown),21.6
